Data taken from PMC4336329 (PLoS ONE, 2015).
The campaign covered roughly 310,000 compounds. About 14,000 (4.5%) showed an effect of 50% or more. The effect is printed as a negative number. This is one part of the list.

Target: human ether-à-go-go-related gene (hERG) potassium channel (human, UniProt Q12809)
Experiment: primary screen, population patch clamp on CHO cells stably expressing hERG
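Also: peak tail current of the secondary pulse compared with the same well before compound.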

Sequence of human ether-à-go-go-related gene (hERG) potassium channel (Q12809 whole entry, looked up): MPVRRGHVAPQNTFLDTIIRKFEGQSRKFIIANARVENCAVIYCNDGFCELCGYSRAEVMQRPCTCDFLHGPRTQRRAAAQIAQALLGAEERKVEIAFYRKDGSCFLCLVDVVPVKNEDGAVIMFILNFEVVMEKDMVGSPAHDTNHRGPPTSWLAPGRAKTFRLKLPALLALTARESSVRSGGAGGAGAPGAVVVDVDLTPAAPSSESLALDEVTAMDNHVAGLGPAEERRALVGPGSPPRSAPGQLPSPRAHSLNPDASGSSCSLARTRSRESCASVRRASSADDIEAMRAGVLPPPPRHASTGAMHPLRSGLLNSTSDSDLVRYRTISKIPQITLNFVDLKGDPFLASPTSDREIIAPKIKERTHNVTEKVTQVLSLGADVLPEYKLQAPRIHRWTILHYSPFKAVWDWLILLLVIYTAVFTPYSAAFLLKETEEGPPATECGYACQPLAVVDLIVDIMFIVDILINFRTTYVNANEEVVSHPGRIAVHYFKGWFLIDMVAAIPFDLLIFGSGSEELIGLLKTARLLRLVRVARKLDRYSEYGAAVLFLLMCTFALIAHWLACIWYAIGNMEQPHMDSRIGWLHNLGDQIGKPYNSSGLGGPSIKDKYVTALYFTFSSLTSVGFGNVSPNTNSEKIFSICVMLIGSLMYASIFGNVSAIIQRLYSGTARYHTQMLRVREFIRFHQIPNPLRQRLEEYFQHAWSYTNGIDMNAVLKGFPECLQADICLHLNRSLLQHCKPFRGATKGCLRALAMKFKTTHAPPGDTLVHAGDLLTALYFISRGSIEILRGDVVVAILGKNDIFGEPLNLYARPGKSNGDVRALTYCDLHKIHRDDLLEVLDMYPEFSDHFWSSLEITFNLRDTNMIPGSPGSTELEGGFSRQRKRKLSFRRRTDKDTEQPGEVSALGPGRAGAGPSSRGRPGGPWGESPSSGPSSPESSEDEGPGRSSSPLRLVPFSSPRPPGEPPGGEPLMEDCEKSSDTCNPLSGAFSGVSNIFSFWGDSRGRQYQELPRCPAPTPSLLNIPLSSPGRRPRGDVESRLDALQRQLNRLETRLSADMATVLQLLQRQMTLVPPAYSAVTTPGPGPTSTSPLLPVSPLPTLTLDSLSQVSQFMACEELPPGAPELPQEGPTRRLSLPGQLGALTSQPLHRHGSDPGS

| SMILES | hERG current change (%, negative = inhibition) at 10uM [%] |
| --- | --- |
| CCCCCOc1ccc(/C(C)=N/NC2=NCCN2)cc1 | -39.8 |
| CCCN1C(=O)c2ccc(C(=O)Nc3cc(C)on3)cc2C1=O | 5.87 |
| O=C(NCc1cccnc1)c1ccc(COc2ccc3c(c2)CCC3)o1 | -31.3 |
| Oc1cccc(C2c3[nH]c4ccccc4c3CCN2Cc2ccoc2)c1 (stereo not drawn) | -29.6 |
| O=c1oc2cc(O)ccc2c2c1CCCC2 | -21.2 |
| Cc1cccc(C)c1NC(=O)CSc1nnc(NC(=O)CN2CCOCC2)s1 | 8.19 |
| FC(F)(F)C1=CC(c2ccc(Cl)cc2)=NCCN1 | -16.1 |
| COC(=O)c1c(C(=O)OC)c(-c2ccccc2)n2c1CS(=O)(=O)C2 | 8.64 |
| O=c1[nH]c2ccc(S(=O)(=O)Nc3ccc(-c4nnc5n4CCCCC5)cc3)cc2o1 | 13.4 |
| CCc1ccc(N2CCN(CCNC(=O)Nc3ccc(OC)cc3)CC2)cc1 | -29.9 |
| Cc1cccc(NC(=O)c2cc(-c3cc(C)ccc3O)n[nH]2)c1 | 8.79 |
| C=CCOC(=O)C1=C[C@H](C2CC2)[C@@H](CCCO)[C@H](OCC)O1 | 10.3 |
| COc1ccc(N=C2S/C(=C\c3ccco3)C(=O)N2CC(C)C)cc1 | 18.4 |
| COc1ccc(OCC(=O)NCc2ccc(Cl)cc2)cc1 | 1.55 |
| Cc1oc2c(c(C)cc3oc(=O)c(CC(=O)N[C@@H](CC(C)C)C(=O)O)c(C)c32)c1C | 15.8 |
| CC(C)CC(COCc1cccc(Cl)c1)N1CCN(C(=O)c2cccc(C(F)(F)F)c2)CCC1=O (stereo not drawn) | -27.4 |
| CCOC(=O)N1CCN(C(=O)Cn2nc(-c3ccc(Cl)cc3)ccc2=O)CC1 | -18.8 |
| CN(C)Cc1c(C(=O)N/N=C/c2cccc(OCc3ccccc3)c2)nnn1-c1nonc1N | 10.9 |
| CCC(CC)C(=O)Nc1cc(=O)n(C)c(=O)n1C | 7.64 |
| CN=c1c([N+](=O)[O-])nn(-c2ccc3c(c2)OCCO3)n1O | 0.135 |
| NC(=O)CC[C@H](NC(=O)[C@H](Cc1ccccc1)n1c(=O)[nH]c2ccccc2c1=O)C(=O)N1CCC[C@H]1C(=O)O | 2.23 |
| COc1ccccc1C(=O)NC1CC2CCC(C1)N2Cc1ccccc1 (stereo not drawn) | -20.4 |

| SMILES | hERG current change (%, negative = inhibition) at 10uM [%] |
| --- | --- |
| Cc1ccc(NC(=O)Nc2ccccc2)c(Br)c1 | -1.55 |
| O=C(O)CCSc1nnc(-c2ccccc2)n1-c1ccccc1 | -3.32 |
| CN(Cc1ccccc1)C(=O)COC(=O)COc1ccc(C#N)cc1 | -18.1 |
| CCS(=O)(=O)N1CCC(C(=O)NC2CCCCCCC2)CC1 | -3.45 |
| CCCOC(=O)c1ccc(NC(=O)C(=O)NCCN(CC)CC)cc1 | -52.1 |
| CCCCN1C(=O)N(C)C2C1N(C)C(=O)N2CCCC (stereo not drawn) | -5.25 |
| Cc1cc(C)c2nc(N(CCCN(C)C)C(=O)c3ccc4c(c3)OCCO4)sc2c1.Cl | -51.2 |
| Cc1ccc(N/C=C/C(=O)c2cccs2)cc1C | 13.6 |
| Cc1[nH]c2ccccc2c1C1=CN2CCS(=O)(=O)N=C2S1 | 3.62 |
| Cc1ccc(Cn2c(SCC(C)C)nc3c2c(=O)n(C)c(=O)n3C)cc1 | 4.03 |
| O=C(O)c1c(NC(=O)N2CCCC2)sc2c1CCCC2 | 26.8 |
| O=C(Cn1ccccc1=O)NCc1ccc(F)cc1 | 8.94 |
| Cc1ccc(C2(C(F)(F)F)NC(=O)N3C(=C2C#N)Nc2ccccc23)cc1 (stereo not drawn) | 7.65 |
| COC(=O)CN1C(=O)C(O)(CC(=O)c2ccc(C)cc2)c2ccccc21 (stereo not drawn) | 14.7 |
| CCNc1ccc(N=Nc2c(C)n(C)n(-c3ccccc3)c2=O)cc1 | -23.1 |
| COc1ccc(CCNc2cc(C)nc3c(-c4ccccc4OC)cnn23)cc1OC | 14.1 |
| Cc1ccc(NC(=O)CSc2nnc(CNC(=O)c3ccco3)n2C)c(C)c1 | 3.91 |
| CCCCn1c(=O)c2ccccc2c2ccccc2c1=O | 1.78 |
| CCC(C)c1ccc(O)c(NC(=O)c2ncn[nH]2)c1 (stereo not drawn) | 14.9 |
| CC(=O)c1ccc(S(=O)(=O)NCCC(=O)OCC(=O)N(Cc2ccccc2)C(C)(C)C)cc1 | -24.5 |
| CC(=O)c1sc(NC(=O)c2ccc(F)c(S(=O)(=O)N3CCOCC3)c2)nc1C | 12.4 |
| CC(C)(C)c1ccc(C(=O)c2c[nH]c(C(=O)NCc3ccco3)c2)cc1 | 2.5 |

| SMILES | hERG current change (%, negative = inhibition) at 10uM [%] |
| --- | --- |
| Cc1ccc(NC(=O)Cc2nnc(SCC(=O)Nc3ccc(N4CCOCC4)cc3)n2C)cc1 | 8.44 |
| CC(C)CC1NC(=O)N(Cc2cc(=O)n3ccsc3n2)C1=O (stereo not drawn) | -49 |
| CCN1C(=O)C(=O)N(CC(=O)N2CCC(C)Sc3ccccc32)C1=O (stereo not drawn) | -12 |
| COc1ccc(CNC(=O)C2CCCN2S(=O)(=O)c2ccccc2)cc1 (stereo not drawn) | 33.9 |
| O=C(Nc1nnc(S(=O)(=O)Nc2ccccc2)s1)C1CCCCC1 | 11.6 |
| COc1cccc(CN2C(=O)NC3(CCCCCC3)C2=O)c1 | 5.21 |
| Cc1ccc(NC(=O)N2CCC(C(=O)NCC(C)C)CC2)cc1 | 9.74 |
| Fc1ccc(-n2nnnc2-c2cnc(-c3cccs3)nc2C(F)(F)F)cc1 | 4.01 |
| OCCC1CN(C/C(Cl)=C/c2ccccc2)CCN1C1CCCC1 (stereo not drawn) | -77.4 |
| O=C(c1cccs1)N1CCCC(c2nc3c(nnn3Cc3c(Cl)cccc3Cl)c(=O)[nH]2)C1 (stereo not drawn) | -46.9 |
| COc1cccc(/C=C2\SC(=S)N(C(C(=O)O)c3ccccc3)C2=O)c1OC (stereo not drawn) | 6.28 |
| Cc1ccc(N2CCN(c3ccc(NCc4nc5ccccc5n4C)cc3)CC2)cc1 | -1.66 |
| CCCCCN1CC(=O)N2C(C)c3[nH]c4ccccc4c3C[C@H]2C1=O (stereo partly drawn) | 0.205 |
| Cc1cc(NC(=O)COc2ncnc3sc(C)c(C)c23)no1 | -0.551 |
| Cc1ccc(-c2nc(CS(=O)(=O)CC(=O)NCc3cccc(F)c3)c(C)o2)cc1 | 9.53 |
| COc1ccc(NC(=O)Cn2nc(Cc3cccnc3)c3ccccc3c2=O)c(OC)c1 | -32.2 |
| CCN(CC)S(=O)(=O)c1cccc(C(=O)Nc2cc(C)nn2-c2ccccc2)c1 | -27.8 |
| CCn1c(=O)cc(SCC(=O)N2CCN(C3CCCCC3)CC2)c2ccccc21 | -38.1 |
| CCCC(=O)N1CCN(c2nc3ccc(Cl)cc3s2)CC1 | -70.2 |
| O=S(=O)(Nc1cccnc1)c1ccc(Cl)c(C(F)(F)F)c1 | -6.18 |
| O=C(CSc1ccc(Cl)cc1)Nc1ccccc1Oc1ccccc1 | 2.7 |
| Cc1ccc(-c2csc(N3CCN(c4cc5c(cc4Cl)nc(C(C)N)n5CCCO)CC3)n2)cc1 (stereo not drawn) | 9.27 |

| SMILES | hERG current change (%, negative = inhibition) at 10uM [%] |
| --- | --- |
| C=C1CCN([C@@H](Cc2ccccc2)C(=O)NCCC(C)C)S(=O)(=O)c2ccccc21 | -15.2 |
| O=[N+]([O-])c1ccc(CNc2cccc(F)c2)s1 | -32.3 |
| O=C(N/C(=C\c1cn(-c2ccccc2)nc1-c1ccccc1)C(=O)N1CCOCC1)c1ccccc1 | 15.5 |
| O=C1CCCC2=C1C(c1ccccc1)NC(=S)N2 (stereo not drawn) | 25.1 |
| Cc1cc(C(C#N)c2ccccc2)n2ncnc2n1 (stereo not drawn) | -0.89 |
| NC(=O)c1ccc(NC(=O)CN2CCN(Cc3ccccc3)CC2)cc1 | -0.874 |
| CCOC(=O)C1=C(Nc2ccc(C)cc2)CC(C)(O)C(C(=O)OCC)C1c1ccccc1 (stereo not drawn) | 16.3 |
| Cc1ccc2c(c1)c1nnc(SCC(=O)N3CCCc4ccccc43)nc1n2CC(=O)O | 20.2 |
| Cc1ccccc1OCCCCn1cnc2ccccc21 | -49.4 |
| Nn1c(SCc2ccc(F)cc2)nnc1-c1ccncc1 | -3.1 |
| Cc1cccc(S(=O)(=O)Nc2ccc(-n3c(C)nc4ccccc4c3=O)cc2)c1 | -55.9 |
| CSCCC(NS(=O)(=O)c1ccccc1F)C(=O)OCc1ccccc1Cl (stereo not drawn) | -16.3 |
| CCCOc1ccc(-c2c(=O)n(OCC(=O)OCC)c3ccccc3[n+]2[O-])cc1 | -4.43 |
| c1ccc(-c2nc(CSc3nnc(-c4cccs4)o3)cs2)cc1 | -9.61 |
| CCN(CC)CCn1c(=N)n(CCO)c2ccccc21 | 5.99 |
| CCOC(=O)C(=O)/C(=C\N(C)C)c1onc(-c2c(Cl)cccc2Cl)c1C(=O)OC | -21.2 |
| Cc1ccc(/C=N/NC(=O)c2cccc(NC(=O)c3ccccc3Cl)c2)o1 | -20.8 |
| CC(Cc1cccs1)N(Cc1ccc(Cl)cc1)C(=O)c1ccncc1 (stereo not drawn) | -17 |
| CC[C@@H](NS(=O)(=O)c1ccc(C)cc1)C(=O)Oc1ccc2c3c(c(=O)oc2c1)CCC3 | -5.34 |
| O=c1oc2ccccc2cc1-c1nnc(NCc2ccco2)s1 | -14.1 |
| Cc1sc2nc(CSCC(=O)NC(C)(C)C)[nH]c(=O)c2c1C | 15.1 |
